{"source": "paper PMC4336329", "about": "(PLoS ONE, 2015)", "note": "About 14,000 (4.5%) of roughly 310,000 compounds showed an effect of 50% or more. The effect is printed as a negative number. This is one part of the list.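 Also: peak tail current of the secondary pulse compared with the same well before compound.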", "data": [{"target": "human ether-à-go-go-related gene (hERG) potassium channel (human, UniProt Q12809)", "sequence (Q12809 whole entry, looked up)": "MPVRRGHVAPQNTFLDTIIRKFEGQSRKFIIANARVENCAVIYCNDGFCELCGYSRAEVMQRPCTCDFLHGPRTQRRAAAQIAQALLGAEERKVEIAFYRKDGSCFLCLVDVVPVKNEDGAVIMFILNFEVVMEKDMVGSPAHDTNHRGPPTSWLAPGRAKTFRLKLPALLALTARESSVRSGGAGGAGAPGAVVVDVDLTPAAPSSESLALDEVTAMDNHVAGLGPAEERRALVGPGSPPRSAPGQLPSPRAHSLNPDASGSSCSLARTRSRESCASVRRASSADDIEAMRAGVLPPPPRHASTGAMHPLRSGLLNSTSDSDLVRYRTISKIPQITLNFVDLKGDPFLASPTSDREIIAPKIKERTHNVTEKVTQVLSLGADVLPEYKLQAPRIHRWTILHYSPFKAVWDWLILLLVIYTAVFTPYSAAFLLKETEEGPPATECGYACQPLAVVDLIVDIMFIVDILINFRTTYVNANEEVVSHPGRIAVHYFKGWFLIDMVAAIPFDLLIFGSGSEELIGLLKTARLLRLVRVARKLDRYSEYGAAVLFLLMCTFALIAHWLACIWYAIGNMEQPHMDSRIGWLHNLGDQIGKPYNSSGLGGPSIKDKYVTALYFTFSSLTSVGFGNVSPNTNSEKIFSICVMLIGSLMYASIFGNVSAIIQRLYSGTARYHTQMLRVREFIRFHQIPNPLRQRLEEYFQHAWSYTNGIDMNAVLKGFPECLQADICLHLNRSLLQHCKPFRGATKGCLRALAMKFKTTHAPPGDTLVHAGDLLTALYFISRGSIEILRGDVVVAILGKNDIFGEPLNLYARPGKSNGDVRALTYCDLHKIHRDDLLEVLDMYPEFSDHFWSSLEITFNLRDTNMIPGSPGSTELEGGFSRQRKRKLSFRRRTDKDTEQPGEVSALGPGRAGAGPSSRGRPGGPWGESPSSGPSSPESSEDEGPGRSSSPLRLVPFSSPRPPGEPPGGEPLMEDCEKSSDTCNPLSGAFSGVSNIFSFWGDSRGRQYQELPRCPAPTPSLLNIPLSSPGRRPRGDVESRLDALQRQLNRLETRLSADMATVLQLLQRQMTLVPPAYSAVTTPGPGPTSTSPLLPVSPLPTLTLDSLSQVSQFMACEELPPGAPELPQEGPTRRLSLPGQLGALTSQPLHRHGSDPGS", "assay": "primary screen, population patch clamp on CHO cells stably expressing hERG", "units": {"hERG current change (%, negative = inhibition) at 10uM": "%"}, "values": [{"compound": "Cc1ccc2nc(SCc3nc4ccccc4c(=O)[nH]3)[nH]c2c1", "hERG current change (%, negative = inhibition) at 10uM": 6.85}, {"compound": "COc1ccc(C(=O)NC(C)c2nc3ccccc3n2C)cc1OC", "note": "(centres unmarked)", "hERG current change (%, negative = inhibition) at 10uM": -22.8}, {"compound": "COc1ccc(C(=O)CSc2nc3ncccc3[nH]2)cc1OC", "hERG current change (%, negative = inhibition) at 10uM": 4.87}, {"compound": "CC(C)(CNC(=O)c1ccc(S(=O)(=O)Nc2ccc(Cl)cc2)cc1)N1CCOCC1", "hERG current change (%, negative = inhibition) at 10uM": -25}, {"compound": "COc1ccc(/C=N/NC(=O)c2nc(-c3ccccc3)cc(-c3ccccc3)n2)cc1OC", "hERG current change (%, negative = inhibition) at 10uM": -0.291}, {"compound": "CS(=O)(=O)N1N=C(c2cccs2)CC1c1ccccc1F", "note": "(centres unmarked)", "hERG current change (%, negative = inhibition) at 10uM": 20.9}, {"compound": "O=C(OCC#CCSc1nc2ccccc2s1)c1ccco1", "hERG current change (%, negative = inhibition) at 10uM": 2.08}, {"compound": "CCN(CC(=O)NCc1ccc(Cl)cc1)C(=O)CSc1ccc(Br)cc1", "hERG current change (%, negative = inhibition) at 10uM": -79.2}, {"compound": "C/C(=N\\NC(=O)C(c1ccccc1)c1ccccc1)c1ccc(O)cc1", "hERG current change (%, negative = inhibition) at 10uM": -6.4}, {"compound": "O=C(N/C=C\\c1ccccc1)NCc1ccc(Cl)cc1", "hERG current change (%, negative = inhibition) at 10uM": 1.95}, {"compound": "Cc1ccc(C(C2=C(O)CC(C)(C)CC2=O)C2C(=O)CC(C)(C)CC2=O)s1", "note": "(centres unmarked)", "hERG current change (%, negative = inhibition) at 10uM": 14.9}, {"compound": "CSc1nnc(CCCCCNC(=O)OC(C)(C)C)o1", "hERG current change (%, negative = inhibition) at 10uM": 8}, {"compound": "CCCCn1nc2cc(C(=O)NCc3cc(C(F)(F)F)cc(C(F)(F)F)c3)ccc2c1OCC", "hERG current change (%, negative = inhibition) at 10uM": 19.7}, {"compound": "Cc1nn(CC(=O)NCc2ccc(Cl)cc2)c(C)c1[N+](=O)[O-]", "hERG current change (%, negative = inhibition) at 10uM": 10.1}, {"compound": "COc1ccc(-c2cc(C)no2)cc1S(=O)(=O)N(C)Cc1ccco1", "hERG current change (%, negative = inhibition) at 10uM": -20.3}, {"compound": "Cc1[nH]c(=O)[nH]c(=O)c1S(=O)(=O)N1CCN(c2ccccc2F)CC1", "hERG current change (%, negative = inhibition) at 10uM": 2.33}, {"compound": "Cc1ccc(SCCCCN2CCOCC2)cc1.Cl", "hERG current change (%, negative = inhibition) at 10uM": -24.6}, {"compound": "O=C(CN1CCN(S(=O)(=O)c2ccc(Cl)cc2)CC1)Nc1ccc2c(c1)OCO2", "hERG current change (%, negative = inhibition) at 10uM": -65}, {"compound": "CCCN(C(=O)CCSc1ccc(F)cc1)c1c(N)n(Cc2ccccc2)c(=O)[nH]c1=O", "hERG current change (%, negative = inhibition) at 10uM": 7.46}, {"compound": "CCN(c1ccc(NC(=O)COC(=O)CCC(=O)c2ccc(F)cc2)cc1)C(C)C", "hERG current change (%, negative = inhibition) at 10uM": -4.95}, {"compound": "CC(=O)Nc1ccc(NC(=O)C2CCN(c3ccc(C(F)(F)F)cn3)CC2)cc1", "hERG current change (%, negative = inhibition) at 10uM": 22.5}, {"compound": "CN(CCc1ccccn1)C(=O)c1nn2c(C(F)(F)F)cc(-c3ccco3)nc2c1Cl", "hERG current change (%, negative = inhibition) at 10uM": -47}, {"compound": "CCCSC1=C(C#N)C(c2cccs2)CC(=O)N1", "note": "(centres unmarked)", "hERG current change (%, negative = inhibition) at 10uM": 3.24}, {"compound": "CC(=O)N1CCN=C1SCc1ccc(Br)cc1", "hERG current change (%, negative = inhibition) at 10uM": -25.6}, {"compound": "O=C(CS(=O)c1ccccc1[N+](=O)[O-])Oc1ccc(Br)cc1", "note": "(centres unmarked)", "hERG current change (%, negative = inhibition) at 10uM": -30.1}, {"compound": "COc1ccc(C(=O)N2CCC(n3c(C)nc4cc(F)ccc43)CC2)cc1", "hERG current change (%, negative = inhibition) at 10uM": -73.4}, {"compound": "Cc1ccc(C(=O)N2CCN(c3ncccn3)CC2)cc1S(=O)(=O)N1CCCCC1", "hERG current change (%, negative = inhibition) at 10uM": 6.72}, {"compound": "CCCCn1c(NC(=S)Nc2ccccc2)nc2ccccc21", "hERG current change (%, negative = inhibition) at 10uM": 12.2}, {"compound": "O=C(NCc1n[nH]c(=O)c2ccccc12)C1CC(=O)N(c2ccc(Cl)cc2)C1", "note": "(centres unmarked)", "hERG current change (%, negative = inhibition) at 10uM": -70.7}, {"compound": "CCCCn1c(N)c(N(CC)C(=O)c2ccccc2C(F)(F)F)c(=O)[nH]c1=O", "hERG current change (%, negative = inhibition) at 10uM": 16.2}, {"compound": "Cc1ccc(CC(CC(=O)O)C(=O)NCC23CC4CC(CC(C4)C2)C3)cc1", "note": "(centres unmarked)", "hERG current change (%, negative = inhibition) at 10uM": 21.9}, {"compound": "CC(C)OC(=O)c1c(-c2ccc(C(C)C)cc2)csc1NC(=O)C1CCCO1", "note": "(centres unmarked)", "hERG current change (%, negative = inhibition) at 10uM": 9.05}, {"compound": "CCCN(CC(=O)Nc1ccccc1OC)C(=O)Cn1[nH]c(=O)c2ccccc2c1=O", "hERG current change (%, negative = inhibition) at 10uM": -11.6}, {"compound": "CCN(CC)CCCNS(=O)(=O)c1ccc(OC)cc1", "hERG current change (%, negative = inhibition) at 10uM": 16.5}, {"compound": "O=C(NCc1nnc(SC/C=C/c2ccccc2)o1)c1ccco1", "hERG current change (%, negative = inhibition) at 10uM": -5.97}, {"compound": "COC(=O)COc1ccc(S(=O)(=O)Nc2ccc3c(c2)OCCO3)cc1C", "hERG current change (%, negative = inhibition) at 10uM": 6.33}, {"compound": "CN(C)S(=O)(=O)c1ccc(C(=O)NCCN=C2NS(=O)(=O)c3ccccc32)cc1", "hERG current change (%, negative = inhibition) at 10uM": 29.6}, {"compound": "CN(C)C(CNC(=O)CCc1nc2sc3c(c2c(=O)[nH]1)CCCC3)c1ccccc1", "note": "(centres unmarked)", "hERG current change (%, negative = inhibition) at 10uM": -7.87}, {"compound": "COc1ccc(C(=O)NNC(=O)C2CCN(S(=O)(=O)c3ccc(C)cc3)CC2)cc1", "hERG current change (%, negative = inhibition) at 10uM": 12.9}, {"compound": "Cc1ccc(C(=O)C(C)OC(=O)C2CC(=O)N(C3CCCCC3)C2)cc1", "note": "(centres unmarked)", "hERG current change (%, negative = inhibition) at 10uM": -11.2}, {"compound": "CC(=O)c1cccc(NC(=O)c2ccc(C(=O)Nc3cccc(C(C)=O)c3)nc2)c1", "hERG current change (%, negative = inhibition) at 10uM": 12.6}, {"compound": "COc1ccc(Br)c(C(=O)NCCC(C)C)c1", "hERG current change (%, negative = inhibition) at 10uM": 0.917}, {"compound": "S=c1[nH]nc(Nc2ccccc2)s1", "hERG current change (%, negative = inhibition) at 10uM": 23.2}, {"compound": "CCn1c(CCNC(=O)c2ccc(OC)cc2)nnc1SCc1ccc(Cl)cc1Cl", "hERG current change (%, negative = inhibition) at 10uM": -65.6}, {"compound": "CC(=O)Oc1ccc(C(=O)Nc2ccccc2C(=O)Nc2ccc(C(=O)O)cc2)cc1", "hERG current change (%, negative = inhibition) at 10uM": 24.3}, {"compound": "C/C(CC(=O)Nc1ccccc1C)=N\\NC(=O)Cc1csc(N)n1.CC(C)O", "hERG current change (%, negative = inhibition) at 10uM": 1.99}, {"compound": "Cc1ccc2c(CC(=O)Nc3c(C)n(C)n(-c4ccccc4)c3=O)coc2c1", "hERG current change (%, negative = inhibition) at 10uM": -7.21}, {"compound": "CCN(CC)C(=O)C1CCCN(Cc2cccc(Oc3ccccc3)c2)C1", "note": "(centres unmarked)", "hERG current change (%, negative = inhibition) at 10uM": -19.6}, {"compound": "C=CCN(C)NC(=O)Nc1ccccc1", "hERG current change (%, negative = inhibition) at 10uM": 18.4}, {"compound": "NC(=O)C1CCN(C(=O)N2c3ccccc3Sc3ccccc32)CC1", "hERG current change (%, negative = inhibition) at 10uM": -8.44}, {"compound": "CCCn1cnc2scc(-c3ccc(OC)cc3)c2c1=O", "hERG current change (%, negative = inhibition) at 10uM": 7.18}, {"compound": "O=C(NNc1ccccn1)C(c1ccccc1)c1ccccc1", "hERG current change (%, negative = inhibition) at 10uM": 2.37}, {"compound": "Cc1nnc(NC(=O)CCn2c(=O)oc3ccccc32)s1", "hERG current change (%, negative = inhibition) at 10uM": 15.9}, {"compound": "O=C(NCCN1CCOCC1)/C(=C\\c1ccc(F)cc1)NC(=O)c1ccccc1", "hERG current change (%, negative = inhibition) at 10uM": -62.3}, {"compound": "S=C(Nc1ccc2nsnc2c1)N1CCCC1", "hERG current change (%, negative = inhibition) at 10uM": 10.2}, {"compound": "CC(=O)c1cc(-c2ccccc2)n(CCC(=O)NC2CCC(C)CC2)c1C", "note": "(centres unmarked)", "hERG current change (%, negative = inhibition) at 10uM": 12.6}]}]}
